# PubChem BioAssay AID759 (NMMLSC, 2007)
# The campaign covered roughly 190,000 compounds. About 270 (0.14%) were called active. The inconclusive results got no clear call from the source; some entries with a clear call stand among them for comparison.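 The calls were made as follows: active = GTP binding activity at least 20% away from the 100% baseline, either lowered as inhibitor or raised as activator; inconclusive = flagged as likely green fluorescent, judged across all proteins in the well; inactive = the rest.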
# Target: GTPase HRas (Homo sapiens) (UniProt P01112)
# Chain of UniProt P01112 (P01112 whole entry, looked up): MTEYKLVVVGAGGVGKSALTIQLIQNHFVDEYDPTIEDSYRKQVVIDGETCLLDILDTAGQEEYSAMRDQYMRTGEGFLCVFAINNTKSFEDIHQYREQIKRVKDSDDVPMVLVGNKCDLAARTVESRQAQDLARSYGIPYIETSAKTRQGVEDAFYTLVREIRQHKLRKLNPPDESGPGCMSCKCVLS
# Assay: HRas wt fluorescent GTP binding changes, either direction – biochemical, wildtype, bead-based flow cytometry, multiplex, primary screen (AID 759);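 also: 0% = unlabeled GTP competition control and 100% = no-compound control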
# Conditions: GST-Ras wt beads, Bodipy-FL-GTP binding, at 10 µM, actives lie on both sides
row,SMILES,GTP binding activity
1,O=C(CCCn1c(=O)[nH]c2ccc(Br)cc2c1=O)NCc1ccc(Cl)cc1,inactive: 97%
2,Cc1ccc(C(=O)Nc2ccnc(-c3cccnc3)n2)cc1,inactive: 94%
3,COc1ccc(N2C(=O)CC(Cc3ccccc3)C2=O)cc1 (stereo not drawn),inconclusive: 104%
4,CCOc1ccc(N2C(=O)c3ccc(C(=O)OCC(=O)N(CC)C4CCS(=O)(=O)C4)cc3C2=O)cc1 (stereo not drawn),inconclusive: 96%
5,COc1ccc(C2=NN(CN3C(=O)C(=O)c4ccccc43)C(c3ccc(OC)cc3)C2)cc1 (stereo not drawn),inactive: 95%
6,CCOC(=O)C1CCN(C(=O)CCNC(=O)Cn2ccc3ccccc3c2=O)CC1,inconclusive: 104%
7,CCc1nc(N2CCCCC2C)c2oc3ccccc3c2n1 (stereo not drawn),inconclusive: 90%
8,CC(=O)C(Cc1cccc(F)c1)(Cc1cccc(F)c1)C(C)=O,inconclusive: 96%
9,COCCSc1nnc(NC(=O)CSCc2ccccc2)s1,inconclusive: 101%
10,Cc1ccc(C2NC(=O)NC3=C2CCc2ccccc23)cc1 (stereo not drawn),inconclusive: 92%
11,COc1ccc(C2C(C(C)=O)=C(O)C(=O)N2c2nccs2)c(OC)c1 (stereo not drawn),inactive: 95%
12,COC(=O)C1=CN(C2CC2)C=C(C(=O)OC)C1c1ccccc1OC,inconclusive: 95%
13,Cc1ccc2cc(CN(CC3CCCO3)C(=S)Nc3ccccc3)c(=O)[nH]c2c1 (stereo not drawn),inconclusive: 97%
14,CCOC(=O)c1c2c3c(cccc3[nH]c1=O)C(=O)c1ccccc1-2,active: 66%
15,Cc1ccc(NC(=S)N=Nc2c(O)[nH]c3ccccc23)cc1,inactive: 87%
16,COC(=O)c1cc(NCc2ccccc2F)ccc1N1CCOCC1,inconclusive: 97%
17,CC1S/C(=N/N=C/c2cccs2)NC1=O (stereo not drawn),inconclusive: 95%
18,CC(C)C(=O)Nc1ccc(C(=O)NNC(=O)C(c2ccccc2)c2ccccc2)cc1,inconclusive: 97%
19,Cc1cc(-c2nnc3n2N=C(c2ccc(-c4ccccc4)cc2)CS3)n[nH]1,active: 78%
20,O=C(c1nn2c(C(F)(F)F)cc(-c3ccc(F)cc3)nc2c1Cl)N1CCOCC1,inconclusive: 179%

row,SMILES,GTP binding activity
1,O=C(COCC(=O)NCc1ccccc1)NCc1ccccc1,inconclusive: 95%
2,CC1(C)Cc2c(sc(NC(=S)NC(=O)c3ccccc3)c2C(=O)O)CO1,active: 67%
3,COc1ccc(CN2C(=O)/C(=C/c3ccc(-c4ccc(Cl)c(C(=O)O)c4)o3)SC2=S)cc1,active: 73%
4,COc1cc(OC)c(NS(=O)(=O)c2cc(C(=O)OCC(=O)NCC3CCCO3)ccc2OC)cc1Cl (stereo not drawn),inactive: 97%
5,O=C(N/N=C/c1cccnc1)C(O)c1ccccc1 (stereo not drawn),inconclusive: 102%
6,CC(=O)c1cccc(NC(=O)N2CCCC2C(=O)NCc2ccc(C)cc2)c1 (stereo not drawn),inconclusive: 100%
7,COc1ccc(CNC(=S)NC(C)CCc2ccccc2)cc1 (stereo not drawn),inactive: 95%
8,CCc1nnc(NC(=O)CSc2nnc(Cc3cc(=O)[nH]c(=O)[nH]3)n2-c2ccc(OC)cc2)s1,inconclusive: 92%
9,O=S1(=O)CC(O)C(N2CCC(c3ccccc3)CC2)C1 (stereo not drawn),inconclusive: 102%
10,O=C(O)c1csc(-n2nc(-c3ccccc3)cc2C(F)(F)F)n1,inconclusive: 94%
11,C=CCSc1nc(-c2ccc(OC)cc2)c(C#N)c(=O)n1CC=C,inactive: 98%
12,Cc1ccc(NS(=O)(=O)c2ccc(C3CCCCC3)cc2)cc1,inconclusive: 104%
13,CC1(C)CC(=O)C(CC(=O)N2CCC(Cc3ccccc3)CC2)C(=O)C1,inactive: 96%
14,COc1ccccc1N1CCN(S(=O)(=O)c2cccc(F)c2)CC1,inconclusive: 332%
15,O=C1CC(c2ccccc2)CC(O)=C1C=NCc1ccco1 (stereo not drawn),inconclusive: 103%
16,CC(Sc1nnc2ccccn12)C(=O)N1CCc2ccccc2C1 (stereo not drawn),inconclusive: 105%
17,O=C(c1cncc(Br)c1)N1CCc2ccccc2C1,inactive: 102%
18,CCOc1cc(C2NC(=O)N(C)C(C)=C2[N+](=O)[O-])ccc1OC(C)=O (stereo not drawn),inconclusive: 96%
19,O=S(=O)(Nc1cccc(-c2cn3c(n2)SCC3)c1)c1cccs1,inconclusive: 96%
20,Cc1cccc(C)c1NC(=O)CN(C)C(C)C(=O)Nc1ccccc1-c1ccccc1 (stereo not drawn),inconclusive: 93%

row,SMILES,GTP binding activity
1,Cc1oc2c(O)c(O)ccc2c(=O)c1-c1cnn(-c2ccccc2)c1,inactive: 99%
2,CCOc1ccc(-n2c(SCC(=O)NC(C)CC)nc3n[nH]c(C)c3c2=N)cc1 (stereo not drawn),inconclusive: 77%
3,Cc1no[n+]([O-])c1COc1cccc(/C=C2\N=C(c3ccccc3)OC2=O)c1,inconclusive: 136%
4,COc1ccc(C(=O)Nc2cccc(C(C)=O)c2)cc1OC,inconclusive: 103%
5,O=C(CN1CCN(c2ccccc2O)CC1)NC(=O)NCc1ccco1,inconclusive: 101%
6,CCCCc1cc(=O)oc2c(CN(C)C)c(O)c(Cl)cc12,inconclusive: 111%
7,Cn1c(=O)n(Cc2ccco2)c(=N)c2c3c(sc21)CCCC3,inconclusive: 94%
8,CCOc1cc(/C=C(\C#N)C(N)=O)ccc1OS(=O)(=O)c1ccccc1,inconclusive: 106%
9,CCOC(=O)c1cnc2c(Cl)cccc2c1NCCN(C)C,inconclusive: 101%
10,CC(C)(C)C1CCC(C(=O)OCC(=O)Nc2ccc3[nH]c(=O)[nH]c3c2)CC1 (stereo not drawn),inactive: 97%
11,Cc1ccc2nsnc2c1NC(=O)c1ccccc1[N+](=O)[O-],inconclusive: 105%
12,CCOC(=O)N1CCC(NC(=O)CCc2c(C)nc3nc(C)nn3c2C)CC1,inconclusive: 104%
13,Cc1ccnc(NS(=O)(=O)c2ccc(CC(C)C)cc2)c1,inconclusive: 104%
14,Cc1ccc2c(c1)c1nnc(SCC(=O)Nc3cccc(Cl)c3C)nc1n2CC(=O)O,inactive: 82%
15,CN(C)/C=N/c1c(C#N)cnn1-c1nc2ccccc2s1,inactive: 97%
16,CCc1ccccc1NC(=O)N[C@@H](C)C(=O)O,inconclusive: 108%
17,CCOC(=O)N1CCN(C(=O)c2nn(-c3cc(OC)cc(OC)c3)c(=O)c3ccccc23)CC1,inconclusive: 103%
18,NC(=O)C1CCN(CCC(=O)Nc2ccc3c(c2)CCC3)CC1,inconclusive: 103%
